In all, about 33,000 sequences were measured (“E-score (-0.5 to 0.5)”: median about -0.041, highest 2% from about 0.37 on). This is one part of the list.
target: T1, Ecm22 (UniProt Q05958); assay: PBM E-score (8-mer binding enrichment) (E-score (-0.5 to 0.5)); higher = stronger / more preferred TF binding; most listed sequences are background and not binding sites; conditions: protein concentration: 200 nM; construct: GST-full length
T1 sequence: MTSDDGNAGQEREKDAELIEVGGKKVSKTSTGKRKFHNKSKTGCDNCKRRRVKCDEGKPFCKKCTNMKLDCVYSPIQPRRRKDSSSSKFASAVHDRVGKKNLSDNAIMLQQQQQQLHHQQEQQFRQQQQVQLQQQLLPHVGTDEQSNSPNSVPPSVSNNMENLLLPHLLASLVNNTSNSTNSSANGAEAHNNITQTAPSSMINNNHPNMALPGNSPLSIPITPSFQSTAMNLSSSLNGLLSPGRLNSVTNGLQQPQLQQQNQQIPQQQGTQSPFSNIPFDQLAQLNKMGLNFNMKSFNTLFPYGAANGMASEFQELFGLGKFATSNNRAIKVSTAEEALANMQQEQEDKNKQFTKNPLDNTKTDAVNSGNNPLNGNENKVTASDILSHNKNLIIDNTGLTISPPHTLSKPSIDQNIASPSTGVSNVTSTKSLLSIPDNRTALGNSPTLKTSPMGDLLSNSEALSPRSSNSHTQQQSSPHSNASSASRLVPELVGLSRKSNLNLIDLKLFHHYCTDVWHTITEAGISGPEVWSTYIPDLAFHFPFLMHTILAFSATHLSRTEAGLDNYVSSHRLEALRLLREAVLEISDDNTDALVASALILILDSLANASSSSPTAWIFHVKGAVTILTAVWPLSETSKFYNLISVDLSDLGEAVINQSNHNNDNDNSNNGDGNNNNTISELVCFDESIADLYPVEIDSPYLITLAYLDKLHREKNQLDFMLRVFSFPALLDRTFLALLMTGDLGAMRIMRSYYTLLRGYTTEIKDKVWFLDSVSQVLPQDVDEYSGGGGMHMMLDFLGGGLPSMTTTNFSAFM
Procedure: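 Universal 'all 10-mer' protein binding microarrays (Agilent AMADID 015681) probed with GST-tagged S. cerevisiae TFs (full-length or DBD) made by in vitro transcription/translation (PURExpress), about 100-200 nM. Bound TF was detected with fluorescent anti-GST. Each ungapped 8-mer (which stands for itself and its reverse complement) is scored by the PBM enrichment score (E-score), a modified Wilcoxon-Mann-Whitney statistic from -0.5 to +0.5, computed with the Universal PBM Analysis Suite. Scale: above 0.35 generally sequence-specific binding.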

Sequence | PBM E-score
ATGGGAGA | -0.319
CTGTTTCA | -0.104
TAAACTTA | -0.0492
AGGCGCGG | -0.0439
GGAGAACC | -0.255
AAAATCGT | 0.213
CAGAGCGC | -0.154
AGATCCAT | -0.0395
CATTGGGC | -0.153
ATCCTTCA | -0.0751
GACTTCAC | -0.121
GCGAGCGC | 0.134
GCACTCAC | -0.182
GGCTTAAA | 0.014
CTCTCAAA | 0.0153
CCACGTTC | 0.0325
ATAACAGC | -0.0009
TGAAGCCA | -0.0959
AAGCTGGT | -0.0493
ATTGCTTG | -0.176
GGTAAGGA | -0.19
CGTCCACC | -0.214
AAAACAAT | -0.114
GTCCAAGA | -0.278
TCACGCCA | 0.0179

Sequence | PBM E-score
AATAATAA | 0.0368
AAGTACCA | 0.145
AGACTCCA | -0.203
TATAGGCA | -0.143
TAGTTGAA | 0.0666
AATTAAAT | -0.222
CCATTTCC | -0.0754
CAGCCGAG | -0.00474
GCGTTTTA | 0.178
CACGATAC | 0.175
CCCAGCCC | -0.203
CCGCTAAA | 0.122
AAGTATCG | -0.0609
GGATCCAA | -0.156
GGAACGTA | 0.353
CGCGGAAG | -0.132
GCATTGCC | 0.079
AATAACTC | -0.0973
ACCGGTGC | -0.166
AATAGTTC | 0.0189
AGGCTAGG | -0.265
AAGGCGGT | 0.0181
CGATCATC | 0.122
TTGCACAA | -0.0659
AGCATGTG | -0.07

Sequence | PBM E-score
CATGATGA | -0.011
TACGCGAA | 0.32
AGGTCTTG | -0.185
AAGGGGGA | -0.0884
ATTGTATA | 0.112
CGGAGGAA | -0.0523
TGGCAACA | -0.201
AATCCAGT | -0.132
CAACAGGC | -0.174
TATTTCAA | 0.0101
CCTTAGGA | -0.182
CGCCCAGA | -0.104
TGAGCGCA | -0.0381
AGGGCCCC | -0.151
AGGGGTCC | -0.204
ACCGTTTG | 0.287
CCTGGCGA | -0.228
AAAGTTGC | -0.135
TACCGTCA | 0.124
TAGCTCAA | -0.185
AGCGTGAC | -0.0426
CAGGAACC | -0.171
CTCTTCCC | -0.205
CACGTCAA | -0.201
AATTGGTC | 0.0661

Sequence | PBM E-score
AGATCTAT | -0.047
ATATCCAT | 0.114
ACGCCATG | -0.0499
AAGCTTGG | 0.0237
CGCTGGTA | -0.192
AACCACCT | -0.195
AGGAGGAA | 0.0606
ACCCAAGT | 0.0144
AACGATCG | 0.364
ATACTGGG | -0.125
AACTAGTC | -0.126
AATATTAA | 0.214
AGCCTAAT | 0.0266
AACAACGC | 0.0745
CGGTCCAG | -0.0483
ATATATGA | 0.041
CTTTCGTA | 0.428
ACGCTAGG | -0.179
GACGTACC | 0.223
GCCAGGCA | -0.183
GTATGATA | 0.317
CACCCTTA | -0.101
ACGTCAAA | -0.013
GAAACTTC | 0.113
CGGGTACC | -0.134

Sequence | PBM E-score
ATCCGTCC | -0.139
ATTTCCAC | -0.018
AGCTCTTG | -0.286
ATTAAAGG | -0.0141
ACGGCGGC | 0.11
AGTGCTGA | -0.0779
ACGAACCG | 0.368
CCCTTACC | -0.0523
CCAATGGG | -0.289
AGACCTTA | -0.079
TATAATAA | 0.0844
AGATTACG | 0.166
TTTCCAAA | -0.0323
GATTTTGA | 0.126
CACGGCCG | 0.0371
AATTTATG | 0.186
AGGACGAC | -0.206
CATACGCA | 0.216
GTTGATGA | -0.0828
CATTCTCA | -0.0253
TATATAAA | 0.236
ACCTCACC | -0.0962
ACTCATGA | -0.0557
AGGCAAGA | -0.151
AAACTTAT | 0.0652

Sequence | PBM E-score
CATCCGCA | -0.0231
CGACGACG | 0.127
CTTTATTA | -0.177
TGGGTCAA | -0.255
GAGAGTTA | -0.123
CGAAAATA | 0.151
ACTCGCGC | 0.101
ATCTCTTC | 0.0412
CCATTACC | -0.104
AGATCAGC | -0.106
CGCGACGA | 0.244
CAAGCTAG | -0.0704
CAAACACA | -0.0009
AGAGTAGA | -0.105
AGGTCGCC | -0.21
CACGTTCC | 0.201
CATCTAGC | -0.143
ACCGGTTC | -0.176
ATGAAGCG | -0.131
AGCTAACA | -0.248
AGGCCAAT | -0.0341
CCGTTAGG | -0.035
GAGAGGGA | -0.212
ATCCCTAC | -0.111
CAATAGAC | -0.163

Sequence | PBM E-score
ACATCCCA | -0.169
AAGGCGTG | -0.0012
GGCTTTGA | 0.0523
CGACCCTC | 0.123
AACTAAGG | -0.039
GACGCCCA | -0.165
AGGCGAAC | 0.0808
CTAATAAA | -0.0877
GAGAAGCA | -0.132
TGTGAACA | 0.0599
CGGGTCAA | 0.0255
CACCTTAA | -0.103
GTGTTGGA | -0.253
TACGTAAA | 0.291
GTCGACAC | 0.18
CATCGTAC | 0.458
AATTATGG | -0.231
CCAGCCCC | -0.184
TGGTCAAA | -0.00875
ATATTCAG | -0.0222
ATGAGTCA | -0.215
CCCACCAG | 0.0147
